# Source: the supplement of paper PMC8728848
# Some of the results follow.
# B1: ASAL (Allium sativum), P83886 (protein)
# chain: MGRTTSSPKAMMRIATVAAILTILASTCMARNVLTNGEGLYAGQSLDVEQYKFIMQDDCNLVLYEYSTPIWASNTGVTGKNGCRAVMQRDGNFVVYDVNGRPVWASNSVRGNGNYILVLQKDRNVVIYGSDIWSTGTYRRSVGGAVVMAMNGTVDGGSVIGPVVVNQNVTAAIRKVGTGAA
# How the values were obtained:
# Assay in all cases: glycan array binding signal (z-score within array); higher = stronger binding
# Conditions in all cases: glycan notation: IUPAC condensed, linker removed
# Neu5Ac(a2-3)Gal(b1-4)Glc = biological target: Neu5Ac(a2-3)Gal(b1-4)Glc
# Procedure, shortened: (§1)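 Glycan array data were curated from 3228 arrays in the Consortium for Functional Glycomics database and kept only where the protein sequence was available. Glycan names were converted to IUPAC-condensed notation, and columns mapping to the same glycan were averaged. The binding signal is a within-array Z-score, averaged across arrays of the same protein sequence at different concentrations or buffers and across linkers. Negative Z-scores can be read as non-binding.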
# [1] = biological target: Neu5Ac(a2-3)Gal(b1-4)GlcNAc
# Procedure, shortened: as §1
# [2] = biological target: Neu5Ac(a2-3)Gal(b1-4)GlcNAc(b1-2)Man(a1-3)[GlcNAc(b1-2)Man(b1-4)GlcNAc(b1-2)Man(a1-6)]Man(b1-4)GlcNAc(b1-4)GlcNAc
# Procedure, shortened: as §1
# [3] = biological target: Neu5Ac(a2-3)Gal(b1-4)GlcNAc(b1-2)Man(a1-3)[Neu5Ac(a2-6)Gal(b1-4)GlcNAc(b1-2)Man(a1-6)]Man(b1-4)GlcNAc(b1-4)GlcNAc
# Procedure, shortened: as §1
# [4] = biological target: Neu5Ac(a2-3)Gal(b1-4)GlcNAc(b1-3)Gal
# Procedure, shortened: as §1
# [5] = biological target: Neu5Ac(a2-3)Gal(b1-4)GlcNAc(b1-3)Gal(b1-3)GlcNAc
# Procedure, shortened: as §1
# [6] = biological target: Neu5Ac(a2-3)Gal(b1-4)GlcNAc(b1-3)Gal(b1-4)GlcNAc
# Procedure, shortened: as §1
# [7] = biological target: Neu5Ac(a2-3)Gal(b1-4)GlcNAc(b1-3)Gal(b1-4)GlcNAc(b1-3)Gal(b1-4)GlcNAc
# Procedure, shortened: as §1
# [8] = biological target: Neu5Ac(a2-3)Gal(b1-4)GlcNAc(b1-3)Gal(b1-4)[Fuc(a1-3)]GlcNAc
# Procedure, shortened: as §1
# [9] = biological target: Neu5Ac(a2-3)Gal(b1-4)GlcNAc(b1-3)GalNAc
# Procedure, shortened: as §1
# [10] = biological target: Neu5Ac(a2-3)Gal(b1-4)GlcNAc(b1-6)[Gal(b1-3)]GalNAc
# Procedure, shortened: as §1
# [11] = biological target: Neu5Ac(a2-3)Gal(b1-4)GlcNAc(b1-6)[Neu5Ac(a2-3)Gal(b1-3)]GalNAc
# Procedure, shortened: as §1
# [12] = biological target: Neu5Ac(a2-3)Gal(b1-4)GlcNAc6S
# Procedure, shortened: as §1
# [13] = biological target: Neu5Ac(a2-3)Gal(b1-4)[Fuc(a1-3)]GlcNAc
# Procedure, shortened: as §1
# [14] = biological target: Neu5Ac(a2-3)Gal(b1-4)[Fuc(a1-3)]GlcNAc(b1-3)Gal
# Procedure, shortened: as §1
# [15] = biological target: Neu5Ac(a2-3)Gal(b1-4)[Fuc(a1-3)]GlcNAc(b1-3)Gal(b1-4)GlcNAc
# Procedure, shortened: as §1
# [16] = biological target: Neu5Ac(a2-3)Gal(b1-4)[Fuc(a1-3)]GlcNAc(b1-3)Gal(b1-4)[Fuc(a1-3)]GlcNAc(b1-3)Gal(b1-4)[Fuc(a1-3)]GlcNAc
# Procedure, shortened: as §1
# [17] = biological target: Neu5Ac(a2-3)Gal(b1-4)[Fuc(a1-3)]GlcNAc(b1-3)GalNAc
# Procedure, shortened: as §1
# [18] = biological target: Neu5Ac(a2-3)Gal(b1-4)[Fuc(a1-3)]GlcNAc(b1-6)[Gal(b1-3)]GalNAc
# Procedure, shortened: as §1
# [19] = biological target: Neu5Ac(a2-3)Gal(b1-4)[Fuc(a1-3)]GlcNAc(b1-6)[Neu5Ac(a2-3)Gal(b1-3)]GalNAc
# Procedure, shortened: as §1
# [20] = biological target: Neu5Ac(a2-3)Gal(b1-4)[Fuc(a1-3)]GlcNAc6S
# Procedure, shortened: as §1
# [21] = biological target: Neu5Ac(a2-3)Gal6S(b1-4)GlcNAc
# Procedure, shortened: as §1
# [22] = biological target: Neu5Ac(a2-3)Gal6S(b1-4)[Fuc(a1-3)]GlcNAc
# Procedure, shortened: as §1
# Neu5Ac(a2-3)GalNAc = biological target: Neu5Ac(a2-3)GalNAc
# Procedure, shortened: as §1
# [23] = biological target: Neu5Ac(a2-3)GalNAc(b1-4)GlcNAc
# Procedure, shortened: as §1
# [24] = biological target: Neu5Ac(a2-3)[GalNAc(b1-4)]Gal(b1-4)Glc
# Procedure, shortened: as §1
# [25] = biological target: Neu5Ac(a2-3)[GalNAc(b1-4)]Gal(b1-4)GlcNAc
# Procedure, shortened: as §1
# [26] = biological target: Neu5Ac(a2-3)[GalNAc(b1-4)]Gal(b1-4)GlcNAc(b1-3)GalNAc
# Procedure, shortened: as §1
# [27] = biological target: Neu5Ac(a2-3)[Neu5Ac(a2-6)]GalNAc
# Procedure, shortened: as §1
# Neu5Ac(a2-6)Gal = biological target: Neu5Ac(a2-6)Gal
# Procedure, shortened: as §1
# [28] = biological target: Neu5Ac(a2-6)Gal(b1-3)GlcNAc(b1-3)[Gal(b1-4)GlcNAc(b1-6)]Gal(b1-4)Glc
# Procedure, shortened: as §1
# Neu5Ac(a2-6)Gal(b1-4)Glc = biological target: Neu5Ac(a2-6)Gal(b1-4)Glc
# Procedure, shortened: as §1
# [29] = biological target: Neu5Ac(a2-6)Gal(b1-4)GlcNAc
# Procedure, shortened: as §1
# [30] = biological target: Neu5Ac(a2-6)Gal(b1-4)GlcNAc(b1-2)Man(a1-3)Man(b1-4)GlcNAc(b1-4)GlcNAc
# Procedure, shortened: as §1
# [31] = biological target: Neu5Ac(a2-6)Gal(b1-4)GlcNAc(b1-2)Man(a1-3)[Gal(b1-4)GlcNAc(b1-2)Man(a1-6)]Man(b1-4)GlcNAc(b1-4)GlcNAc
# Procedure, shortened: as §1
# [32] = biological target: Neu5Ac(a2-6)Gal(b1-4)GlcNAc(b1-2)Man(a1-3)[GlcNAc(b1-2)Man(a1-6)]Man(b1-4)GlcNAc(b1-4)GlcNAc
# Procedure, shortened: as §1
# [33] = biological target: Neu5Ac(a2-6)Gal(b1-4)GlcNAc(b1-2)Man(a1-3)[GlcNAc(b1-2)Man(b1-4)GlcNAc(b1-2)Man(a1-6)]Man(b1-4)GlcNAc(b1-4)GlcNAc
# Procedure, shortened: as §1
binder,measurement,setting,value
B1,glycan array binding signal (z-score),Neu5Ac(a2-3)Gal(b1-4)Glc,-0.28
same,glycan array binding signal (z-score),[1],-0.226
same,glycan array binding signal (z-score),[2],-0.284
same,glycan array binding signal (z-score),[3],-0.154
same,glycan array binding signal (z-score),[4],-0.236
same,glycan array binding signal (z-score),[5],-0.271
same,glycan array binding signal (z-score),[6],-0.221
same,glycan array binding signal (z-score),[7],-0.268
same,glycan array binding signal (z-score),[8],-0.22
same,glycan array binding signal (z-score),[9],-0.248
same,glycan array binding signal (z-score),[10],-0.302
same,glycan array binding signal (z-score),[11],-0.302
same,glycan array binding signal (z-score),[12],-0.252
same,glycan array binding signal (z-score),[13],-0.271
same,glycan array binding signal (z-score),[14],-0.249
same,glycan array binding signal (z-score),[15],-0.139
same,glycan array binding signal (z-score),[16],-0.269
same,glycan array binding signal (z-score),[17],0.092
same,glycan array binding signal (z-score),[18],-0.077
same,glycan array binding signal (z-score),[19],-0.197
same,glycan array binding signal (z-score),[20],-0.299
same,glycan array binding signal (z-score),[21],-0.23
same,glycan array binding signal (z-score),[22],-0.267
same,glycan array binding signal (z-score),Neu5Ac(a2-3)GalNAc,-0.276
same,glycan array binding signal (z-score),[23],-0.258
same,glycan array binding signal (z-score),[24],-0.224
same,glycan array binding signal (z-score),[25],-0.258
same,glycan array binding signal (z-score),[26],-0.23
same,glycan array binding signal (z-score),[27],-0.245
same,glycan array binding signal (z-score),Neu5Ac(a2-6)Gal,-0.257
same,glycan array binding signal (z-score),[28],-0.166
same,glycan array binding signal (z-score),Neu5Ac(a2-6)Gal(b1-4)Glc,-0.297
same,glycan array binding signal (z-score),[29],-0.271
same,glycan array binding signal (z-score),[30],-0.285
same,glycan array binding signal (z-score),[31],0.451
same,glycan array binding signal (z-score),[32],1.07
same,glycan array binding signal (z-score),[33],-0.246
